Assay results taken from PubChem BioAssay AID1671188 (National Center for Advancing Translational Sciences (NCATS), 2021).
The whole screen tested about 100,000 compounds, of which about 250 (0.25%) were called active. This list was built around the results that the source calls inconclusive (neither active nor inactive); the mix of calls is not that of the screen. Calls follow the shape of the dose curve; as a rule, active = well fitted inhibition curve with a large enough effect; inconclusive = small, poorly fitted or top-dose-only effect; inactive = flat fitted curve, though single readings scatter. Potencies of inconclusive entries are left out as doubtful fits.

Each compound was assayed against Alanine aminotransferase 2 (Homo sapiens) (UniProt Q8TD30) (assay: Primary qHTS assay for inhibitors of Glutamate pyruvate transaminase 2 (GPT2)). Details: Recombinant GPT2, coupled pyruvate oxidase/HRP Amplex Red fluorescence; series mostly up to 57.7 µM.
UniProt Q8TD30, sequence (Q8TD30 whole entry, looked up): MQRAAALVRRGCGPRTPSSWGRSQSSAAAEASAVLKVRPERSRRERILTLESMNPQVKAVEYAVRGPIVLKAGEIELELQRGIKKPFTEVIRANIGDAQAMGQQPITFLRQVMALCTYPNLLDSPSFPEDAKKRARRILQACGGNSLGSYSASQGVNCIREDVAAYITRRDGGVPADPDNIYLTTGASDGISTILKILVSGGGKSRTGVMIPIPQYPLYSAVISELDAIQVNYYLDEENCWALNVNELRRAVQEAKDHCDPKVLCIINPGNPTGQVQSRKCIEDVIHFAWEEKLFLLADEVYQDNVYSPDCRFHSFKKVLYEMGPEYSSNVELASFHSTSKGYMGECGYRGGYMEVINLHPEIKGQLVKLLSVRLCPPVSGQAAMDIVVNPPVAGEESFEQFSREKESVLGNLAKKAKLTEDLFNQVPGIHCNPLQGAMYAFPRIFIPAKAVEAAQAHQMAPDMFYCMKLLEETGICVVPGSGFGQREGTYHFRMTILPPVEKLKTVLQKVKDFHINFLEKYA
How it was run: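 Fluorescence read-out: pyruvate from GPT2 turnover coupled to pyruvate oxidase, HRP and Amplex Red (0.2mM ThPP, 0.2U/mL PO and HRP, 50uM Amplex final). Substrates 250uM a-KG, 2mM L-alanine; enzyme 10ng/uL; 30 min RT.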
Also: nearly all actives have a fitted effect of over 60% in size.
Potency is read from the fitted curve at half-maximal effect; tags tell the direction and shape of the fitted curve.

SMILES	Potency
COc1ccc(-c2cc(N3CCC(NC(=O)c4ccccc4Br)C3)n[nH]2)cc1 (centres undefined)	inconclusive [inhibitor, single point]
O=C(O)CCC1CCN(C(=O)c2ccccc2)CC1	inconclusive [inhibitor, full curve, poor fit]
CC(C)n1cnnc1CN1CCN(Cc2ccccn2)[C@@H]2CS(=O)(=O)C[C@@H]21	inconclusive [inhibitor, single point]
O=C(NCc1cccnc1)C1CCCCN1Cc1ccc(-c2ccsc2)cc1 (centres undefined)	inactive
COCC1(O)CCOC2(CCN(C(=O)c3ccccn3)CC2)C1 (centres undefined)	inconclusive [inhibitor, single point]
CNCc1ccncc1	inconclusive [inhibitor, single point]
Cc1ccc2nc(C(C)NC(=O)c3cnc(-c4ccccn4)[nH]c3=O)[nH]c2c1 (centres undefined)	inconclusive [inhibitor, partial curve]
OCc1cccc(-c2cc(-c3cccnc3)c3cncn3c2)c1	inconclusive [inhibitor, full curve, poor fit]
COCC1CN(S(=O)(=O)c2ccc(C)c(F)c2)CC12CCNCC2 (centres undefined)	inconclusive [inhibitor, single point]
CN1CCN(CCCN2c3ccccc3Sc3ccc(Cl)cc32)CC1	inconclusive [inhibitor, single point]
O=C(c1cccc(F)c1)N1CCC(Cc2nc(C3CCOCC3)no2)CC1	inactive
COCCN1C(=O)CCC2(C(=O)NCc3ccc(Cl)cc3)CCCC=C12 (centres undefined)	inactive
Cc1ccc2nc([C@H]3CCN(C(=O)c4ccccc4)C3)[nH]c2c1	inconclusive [inhibitor, single point]
O=C(C[C@@H]1CCNC[C@@H]1Cc1cc(COc2ccccc2)on1)N1CCC(Cc2ccccc2)CC1	inactive
COCCCNC(=O)c1nc2sccn2c1-c1cccc(C(F)(F)F)c1	inactive
COc1ccc(-c2nn(-c3cc(C)ccc3C)c(OC(C)=O)c2-c2ccc(NC(C)=O)cc2)c(OC)c1	active: 2.82 µM
O=C1c2ccccc2C(=O)c2c1ccc(O)c2O	inconclusive [inhibitor, partial curve, poor fit]
C[C@]12CCC3=C4CCC(=O)C=C4CC[C@@H]3[C@H]1CC[C@@]2(O)CC#N	inconclusive [inhibitor, single point]
O=C(Cc1ccc(Cl)cc1)N1CCC2(CC1)NC(=O)N(c1ccccc1Cl)N2	inconclusive [inhibitor, single point]
O=C(c1ccccc1)N1CCC2(CC1)C(=O)Nc1ccccc12	inconclusive [inhibitor, full curve, poor fit]
COC[C@@H]1CNC[C@H]1c1nc(C2CC2)no1	inconclusive [inhibitor, full curve, poor fit]
C=CCN(C)C(=O)[C@@H]1Cc2c[nH]c3cccc(c23)[C@H](CC(C)C)N1	inactive

SMILES	Potency
CN(Cc1ccc(F)cc1)Cc1ccccc1OCC(O)CN1CCCCC1 (centres undefined)	inconclusive [inhibitor, partial curve, poor fit]
Cc1ccc(C(=O)N2CCC(N3C(=O)C4(CCCCC4)C3c3ccncc3)CC2)cc1 (centres undefined)	inactive
CNS(=O)(=O)c1ccccc1Nc1nc(Nc2ccc(N3CCN(C)CC3)cc2OC)ncc1Br	inconclusive [inhibitor, full curve, poor fit]
O=C(C1CCCCC1)N1CCC2(CN[S+](=O)([O-])c3cnccc3O2)C1 (centres undefined)	inconclusive [inhibitor, single point]
CCn1c(C2CCCN(Cc3c(C(=O)O)[nH]c4ccc(C)cc34)C2)n[nH]c1=O (centres undefined)	inconclusive [inhibitor, partial curve, poor fit]
Cc1ccccc1C(=O)N1CCN(C(=O)c2nnn3c2COC(c2ccccc2)C3)CC1 (centres undefined)	inactive
O=C1CC(c2ccccc2)N(Cc2ccc(F)cc2F)CCCCCCN1 (centres undefined)	inconclusive [inhibitor, full curve, poor fit]
Cc1ccccc1-c1cnc2[nH]cc(CC(=O)Nc3ccccc3)c2c1	inactive
Cc1cn2nc(C(=O)NC3CCC(C)CC3)cc2c(N2CCCC2)n1 (centres undefined)	inconclusive [inhibitor, partial curve]
O=C1NCc2ccccc2CC12CCCN(CC1=CCCCC1)C2 (centres undefined)	inconclusive [inhibitor, single point]
O=C(C1CC1)N1CC(c2nnc(-c3ccncc3)o2)C2(CCOCC2)C1 (centres undefined)	inactive
CN1CC(=O)N(C2CCNCC2)Cc2c(NC3CCC3)ncnc21	inconclusive [inhibitor, partial curve]
CCN(CC)C(=O)[C@@H]1CCCN1[C@H](Cc1ccccc1)C(=O)NC	inconclusive [inhibitor, single point]
COc1ccc(-c2ccc3c(c2)C(=O)N2CC[C@H](n4nnc(C(N)=O)c4C(N)=O)C[C@H]2C(=O)N3)c(OC)c1	inconclusive [inhibitor, full curve, poor fit]
O=C(CCCc1ccccc1)N1CCCCC1c1nc(-c2ccncc2)n[nH]1 (centres undefined)	inconclusive [inhibitor, single point]
CCc1cccc(NC(=O)C2CCN(C(=O)c3nnn4c3COC(c3ccc(OC)cc3)C4)CC2)c1 (centres undefined)	inactive
CC(C)(C)c1ccc(CN2CCN(Cc3cc4n(n3)CCNC4)CC2)cc1	inconclusive [inhibitor, single point]
CC1CCC(=O)CC(SCC(O)C(=O)O)CCC(=O)O1 (centres undefined)	inconclusive [inhibitor, single point]
Cc1cc(C)cc(NC2=N[C@H]3[C@@H](O)[C@H](O)C[C@H](C(=O)N4CCC(C(N)=O)CC4)[C@H]3S2)c1	inactive
CC(=O)OCC(CCn1cnc2cnc(N)nc21)COC(C)=O	inconclusive [inhibitor, partial curve, poor fit]
Cn1ccnc1C(=O)N1CCC2(CC1)CC(Cc1nc(C3CC3)no1)CCO2 (centres undefined)	inconclusive [inhibitor, full curve]
O=C(N[C@@H]1CN(Cc2ccc3cc[nH]c3c2)C[C@H]1CO)c1ccccc1	inconclusive [inhibitor, single point]

SMILES	Potency
C=CC(=O)Nc1cccc(Oc2nc(Nc3ccc(N4CCN(C)CC4)cc3OC)ncc2Cl)c1	inconclusive [inhibitor, single point]
CN1CC(=O)N(c2ccccc2F)Cc2c(NCCO)ncnc21	inconclusive [inhibitor, single point]
O=C(/C=C/c1ccc(O)c(O)c1)OCCc1ccccc1	inactive
Cc1ccc(OCC(O)CNc2nc(C)nc3c2c(C)nn3C)c(C)c1 (centres undefined)	inconclusive [inhibitor, full curve]
COc1ccccc1CCC(=O)N1CCC2(CC1)NC(=O)N(c1cccc(F)c1)N2	inconclusive [inhibitor, single point]
COCCCNC(=O)N1CCCCC1c1nc(CCOc2cccc(C)c2)no1 (centres undefined)	inconclusive [inhibitor, single point]
CCOC(=O)C1(Cc2cccc(OC)c2)CCCNC1 (centres undefined)	inconclusive [inhibitor, full curve, poor fit]
COC1CC(O[C@H]2CC[C@]3(C)C4CC[C@]5(C)C(C6=CC(=O)OC6)=CCC56OC46CC[C@@H]3C2)OC(C)C1O[C@@H]1O[C@H](CO[C@@H]2O[C@H](CO)[C@@H](O)[C@H](O)[C@H]2O)[C@@H](O)[C@H](O)[C@H]1O (some centres undefined)	inconclusive [inhibitor, single point]
COc1ccccc1C(=O)N1CC[C@H]2COC(=O)N2c2cc(F)ccc2C1	inactive
O=C(Cc1ccccc1)N1CCCN(c2cc(-c3ccc(Br)cc3)[nH]n2)CC1	inconclusive [inhibitor, partial curve, poor fit]
COCc1cc(=O)n(CC(=O)Nc2cc(C)ccc2C)c(N2CCOCC2)n1	inconclusive [inhibitor, partial curve, poor fit]
O=C([C@@H]1C[C@H](Oc2cccnc2)CN1C(=O)c1ccco1)N1CCCC1	inactive
COc1ccc(-c2ccc3ncc(Nc4ccc5c(c4)OCO5)n3n2)cn1	inconclusive [inhibitor, partial curve, poor fit]
O=C(c1ccccc1)N1CCCC(C(=O)N2CCC(N3CCCC3=O)CC2)C1 (centres undefined)	inconclusive [inhibitor, single point]
C[S+](=O)([O-])c1ccc(-c2cc(C(=O)NC3CC3)nn3cccc23)cc1	inactive
CCOc1ccc(CN2CCc3nc(N4CCOCC4)[nH]c(=O)c3CC2)cc1OC	inactive
O=C1NC2(CCCN([S+](=O)([O-])c3ccsc3)C2)COc2ccccc21 (centres undefined)	inconclusive [inhibitor, full curve, poor fit]
O=C(c1ccccc1F)N1CCN(Cc2ccccc2-c2cccnc2)CC1	inconclusive [inhibitor, full curve, poor fit]
Cn1ncc2c(N)nc(NC3CC(c4cc(=O)[nH]c(C5CC5)n4)C3)nc21 (centres undefined)	inconclusive [inhibitor, single point]
O=C(c1ccc2[nH]ccc2c1)N1CCCN(c2cc(-c3ccc(Br)cc3)[nH]n2)CC1	inconclusive [inhibitor, single point]
